Assay results as given in the RNAGym collection of RNA variant scans (doi:10.1073/pnas.2313332121).
Variants at the background level are over-represented here.

B1: TPR 5TU (parent)
chain: GGAUCUUCUCGAUCUAACAAAAAAGACAAAUCUGCCACAAAGCUUGAGAGCAUCUUCGGAUGCAGAGGCGGCAGCCUUCGGUGGCGCGAUAGCGCCAACGUUCUCAACUAUGACACGCAAAACGCGUGCUCCGUUGAAUGGAGUUUAUCAUG

Variants of: B1
Test: polymerase ribozyme fitness, log enrichment relative to wild type (log ratio); higher = more active; in vitro selection for triplet polymerase activity
Summary of the method: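 Only genotypes with ≥10 input reads and ≥1 read per output were kept after Illumina sequencing of input and output libraries. These libraries were PCR-built, transcribed mutants of each subunit of a heterodimeric triplet polymerase ribozyme, each put through one triplicate in vitro selection round with frozen incubation at −7 °C, gel excision of extended constructs, streptavidin-bead capture and RT-PCR. Fitness is a logarithmic ratio of genotype enrichment to wild-type enrichment, from inverse-variance-weighted replicate averages, with the logarithm in base 2.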

Row | Variant | polymerase ribozyme fitness (log ratio)
1 | A40G A115U G140U | ≤ -4.2
2 | A40G C43A A52C C54A G94U U151A | ≤ -4.2
3 | A40G C51U A60C U77G U78A G83A U135G | ≤ -4.2
4 | A40G C54G C93A C103G A121G U146C | ≤ -4.2
5 | A40G C54U A64C C72G A89U | ≤ -4.2
6 | A40G C54U C76U A91C C95G G143U | ≤ -4.2
7 | A40G C54U U55A U127A U135C | ≤ -4.2
8 | A40G C57G G62A | ≤ -4.2
9 | A40G C75U A89C U148G | ≤ -4.2
10 | A40G C75U G94C U130G C131A | ≤ -4.2
11 | A40G C79U C87U G100C C125A U127A | ≤ -4.2
12 | A40G C85A U104G C116U G117U | ≤ -4.2
13 | A40G C85G A89G | ≤ -4.2
14 | A40G C85U | -2.16
15 | A40G C87A U151C | ≤ -4.2
16 | A40G C87G | ≤ -4.2
17 | A40G C87U | -1.53
18 | A40G C93U A106G C118U | -3.47
19 | A40G C108G | ≤ -4.2
20 | A40G C125G | -2.5
21 | A40G G42U G74C | ≤ -4.2

Row | Variant | polymerase ribozyme fitness (log ratio)
22 | A40G G48C A49C | ≤ -4.2
23 | A40G G48C U55A U145G U148C C149G | ≤ -4.2
24 | A40G G48U G58U C76A | ≤ -4.2
25 | A40G G50A G58A | ≤ -4.2
26 | A40G G50A U53G G58A | ≤ -4.2
27 | A40G G50U G58C A73G G88A | ≤ -4.2
28 | A40G G50U U56A G83C | -4.02
29 | A40G G58C C79G C87U G136U | ≤ -4.2
30 | A40G G58C G59C G68C G80A G94A | ≤ -4.2
31 | A40G G59U C75A G88C | ≤ -4.2
32 | A40G G65A A91C G100A A107U C108G U146C | ≤ -4.2
33 | A40G G65C | ≤ -4.2
34 | A40G G67A G92A A110C | ≤ -4.2
35 | A40G G70U A73C G94C | ≤ -4.2
36 | A40G G71A C96G | ≤ -4.2
37 | A40G G71A U78G C85A C93G | ≤ -4.2
38 | A40G G74C C93U | ≤ -4.2
39 | A40G G83A C103G | ≤ -4.2
40 | A40G G86A C95U C103G C108U C125G | ≤ -4.2
41 | A40G G88A G94C C99A A122C G128A G143A | ≤ -4.2
42 | A40G G92A C105U | ≤ -4.2

Row | Variant | polymerase ribozyme fitness (log ratio)
43 | A40G G92U C108G A142U | ≤ -4.2
44 | A40G G100C C103A | ≤ -4.2
45 | A40G U44C C54U C125G | ≤ -4.2
46 | A40G U45A A47C C99U A115C G124C | ≤ -4.2
47 | A40G U45A G126U C129A G141C | ≤ -4.2
48 | A40G U53A A73U C93G A113U | ≤ -4.2
49 | A40G U53C A98U A150C | ≤ -4.2
50 | A40G U53G A73G G81U G94A | ≤ -4.2
51 | A40G U55A C76G G81A G86U C149U | ≤ -4.2
52 | A40G U55A G58A U90A U146A | ≤ -4.2
53 | A40G U56A G59U G68A C95A U135A A150U | ≤ -4.2
54 | A40G U56A G83U A89C A97C G140A G143C | ≤ -4.2
55 | A40G U56G C85A A115U U134C | -4.09
56 | A40G U56G C85A C103A U146G | ≤ -4.2
57 | A40U | 0.097
58 | A40U A41C U45G C99A C125U U130G A142U | ≤ -4.2
59 | A40U A47C A89U U134G | -2.3
60 | A40U A47U U61G G83C C96A G140U | ≤ -4.2
61 | A40U A49C U61G C87A G100U U102G G124C | ≤ -4.2
62 | A40U A49U U78G | ≤ -4.2
63 | A40U A52C U82G C87G C93U A142C | ≤ -4.2

Row | Variant | polymerase ribozyme fitness (log ratio)
64 | A40U A60U C79U A142C | ≤ -4.2
65 | A40U A64G C93A A98G A107C U130G | ≤ -4.2
66 | A40U A73U U82A A91U C105G A107G A120U G124C A138C | ≤ -4.2
67 | A40U A91C A120C C129A U151A | ≤ -4.2
68 | A40U A97U C108U | ≤ -4.2
69 | A40U C43G C51A U55A G81A G92C A113U U144C | ≤ -4.2
70 | A40U C43U C96G U130A U144A | ≤ -4.2
71 | A40U C43U G84A U127A | ≤ -4.2
72 | A40U C51U G83C | -0.981
73 | A40U C54A G65A C79G | ≤ -4.2
74 | A40U C54U A97U C99U | -2.64
75 | A40U C54U C85U C108U | ≤ -4.2
76 | A40U C57A G58C C79G | -3.81
77 | A40U C57G C108U | ≤ -4.2
78 | A40U C57U A89C C99G A119G | -1.22
79 | A40U C57U U61A U82G A98C A106U C116U A121U C132U A138C | ≤ -4.2
80 | A40U C63A C72A C76A C103G | ≤ -4.2
81 | A40U C75U U148A | ≤ -4.2
82 | A40U C85A U144A | -0.577
83 | A40U C85U | -0.107
84 | A40U C87U C105U G136U | -2.13
